{"source": "PubChem BioAssay AID588453", "about": "(National Center for Advancing Translational Sciences (NCATS), 2011)", "note": "Screen size: about 390,000 compounds; about 4,000 (1%) were called active. The shares of active, inactive and inconclusive entries below differ from those in the screen. Calls follow the shape of the dose curve; as a rule, active = well fitted inhibition curve with a large enough effect; inconclusive = small, poorly fitted or top-dose-only effect; inactive = no such curve, though single readings can be large or run the other way. Where the call is inconclusive, the potency comes from a doubtful curve fit. Potency is read from the fitted curve at half-maximal effect; tags tell the direction and shape of the fitted curve.", "data": [{"biological_target": "Thioredoxin reductase 1, cytoplasmic (Rattus norvegicus) (UniProt O89049)", "sequence (O89049 whole entry, looked up)": "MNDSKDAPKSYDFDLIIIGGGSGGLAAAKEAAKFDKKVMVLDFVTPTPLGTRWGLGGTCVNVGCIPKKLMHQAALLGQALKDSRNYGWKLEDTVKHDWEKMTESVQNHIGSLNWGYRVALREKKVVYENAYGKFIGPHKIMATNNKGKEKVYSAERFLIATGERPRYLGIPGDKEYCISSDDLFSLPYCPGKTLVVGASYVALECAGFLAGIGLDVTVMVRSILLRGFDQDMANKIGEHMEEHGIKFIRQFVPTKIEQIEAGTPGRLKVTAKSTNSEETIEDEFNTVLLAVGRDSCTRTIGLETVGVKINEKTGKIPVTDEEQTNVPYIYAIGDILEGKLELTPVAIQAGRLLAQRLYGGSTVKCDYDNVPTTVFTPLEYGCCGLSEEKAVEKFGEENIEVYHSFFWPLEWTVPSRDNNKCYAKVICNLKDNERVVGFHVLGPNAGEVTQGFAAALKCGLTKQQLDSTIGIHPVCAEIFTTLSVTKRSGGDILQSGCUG", "assay": "qHTS Assay for Inhibitors of Mammalian Selenoprotein Thioredoxin Reductase 1 (TrxR1): qHTS; also: nearly all actives have a fitted effect of over 65% in size", "conditions": "recombinant rTrxR1, NADPH fluorescence consumption, selenite substrate; series mostly up to 114 µM", "procedure,_shortened": "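Rat TrxR1 (90 nM in the dispensed reagent) was pre-reduced with 400 uM NADPH for 5 min at room temperature, then incubated with compound for 15 min. After 400 uM selenite was added, NADPH fluorescence (Ex 340/Em 450 nm) was followed for 8 min.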", "values": [{"smiles": "Cc1cc(C(=O)CN2CC(C)OC(C)C2)c(C)n1-c1ccccc1", "note": "(centres undefined)", "Potency": "inconclusive: 70.8 µM [inhibitor, partial curve]"}, {"smiles": "O=C(CCSC1=NCCCN1)c1ccc(F)cc1", "Potency": "inconclusive: 1.12 µM [inhibitor, full curve]"}, {"smiles": "Cc1cc(C)n2cc(CSCc3ccco3)nc2n1", "Potency": "inconclusive: 25.1 µM [inhibitor, single point]"}, {"smiles": "CCN(CC(=O)Nc1ccc2c(c1)CCC2)Cc1nc2ccccc2c(=O)[nH]1", "Potency": "inconclusive: 50.1 µM [inhibitor, partial curve]"}, {"smiles": "COc1cc(CN2CCC(C(=O)NC3CCCC3)CC2)cc(OC)c1O", "Potency": "inconclusive: 56.2 µM [inhibitor, partial curve]"}, {"smiles": "Cc1ccccc1OCC(=O)NNC(=O)c1ccoc1C", "Potency": "inconclusive: 89.1 µM [inhibitor, single point]"}, {"smiles": "COc1ccc(CNc2ncnc3sccc23)cc1OC", "Potency": "inactive"}, {"smiles": "COc1ccc(CNC(=O)c2ccc(CS(=O)c3ccccc3)o2)cc1", "note": "(centres undefined)", "Potency": "inconclusive: 79.4 µM [inhibitor, single point]"}, {"smiles": "CC(=O)Nc1cccc(C(=O)OCC(=O)NC2CCCCCCC2)c1", "Potency": "inactive"}, {"smiles": "CCOC(=O)c1ccc(NC(=S)NCCc2ccccc2)cc1", "Potency": "inconclusive: 14.1 µM [inhibitor, full curve]"}, {"smiles": "Cc1cc(SCC(=O)NC(=O)c2cccn2C)nc2ccccc12", "Potency": "inconclusive: 28.2 µM [inhibitor, partial curve, poor fit]"}, {"smiles": "CCCOc1ccc(Cl)cc1/C=C1/C(=O)ON=C1C", "Potency": "inconclusive: 25.1 µM [inhibitor, partial curve, poor fit]"}, {"smiles": "O=C(O)c1ccc(Cn2cc(/C=C\\[N+](=O)[O-])c3ccccc32)o1", "Potency": "inconclusive: 12.6 µM [inhibitor, full curve]"}, {"smiles": "Cc1ccc(/C=N/n2c(COc3ccccc3)n[nH]c2=S)o1", "Potency": "inconclusive: 10 µM [inhibitor, partial curve, poor fit]"}, {"smiles": "Cc1ccccc1-c1n[nH]c(=S)o1", "Potency": "inconclusive: 39.8 µM [inhibitor, partial curve, poor fit]"}, {"smiles": "Cc1cc(Cl)ccc1OCCCC(=O)N1CCN(C(=O)c2ccco2)CC1", "Potency": "active: 28.2 µM"}, {"smiles": "C=CCc1ccc(OCC(O)CN2CCCCC2C)c(OC)c1", "note": "(centres undefined)", "Potency": "inconclusive: 39.8 µM [inhibitor, single point]"}, {"smiles": "O=S(=O)(c1cccc(-c2n[nH]c(=S)n2-c2cccc(C(F)(F)F)c2)c1)N1CCOCC1", "Potency": "inconclusive: 1.78 µM [inhibitor, partial curve, poor fit]"}, {"smiles": "CN(CC1CCOCC1)C(=O)CC1C(=O)NCCN1Cc1ccccc1F", "note": "(centres undefined)", "Potency": "inconclusive: 50.1 µM [inhibitor, partial curve]"}]}]}
